This is one part of the list. The main result of the screen is listed elsewhere. These columns were measured beside it and carry no call.
Each compound was assayed against Voltage-dependent N-type calcium channel subunit alpha-1B (Homo sapiens) (UniProt Q00975) (assay: inhibitors of Mint1-CaV2.2 protein interaction, biochemical, HTRF (AID 2073)). Details: measured here: average of repeat tests, at 20 µM, stronger effect = higher value.
Sequence of UniProt Q00975 (Q00975 whole entry, looked up): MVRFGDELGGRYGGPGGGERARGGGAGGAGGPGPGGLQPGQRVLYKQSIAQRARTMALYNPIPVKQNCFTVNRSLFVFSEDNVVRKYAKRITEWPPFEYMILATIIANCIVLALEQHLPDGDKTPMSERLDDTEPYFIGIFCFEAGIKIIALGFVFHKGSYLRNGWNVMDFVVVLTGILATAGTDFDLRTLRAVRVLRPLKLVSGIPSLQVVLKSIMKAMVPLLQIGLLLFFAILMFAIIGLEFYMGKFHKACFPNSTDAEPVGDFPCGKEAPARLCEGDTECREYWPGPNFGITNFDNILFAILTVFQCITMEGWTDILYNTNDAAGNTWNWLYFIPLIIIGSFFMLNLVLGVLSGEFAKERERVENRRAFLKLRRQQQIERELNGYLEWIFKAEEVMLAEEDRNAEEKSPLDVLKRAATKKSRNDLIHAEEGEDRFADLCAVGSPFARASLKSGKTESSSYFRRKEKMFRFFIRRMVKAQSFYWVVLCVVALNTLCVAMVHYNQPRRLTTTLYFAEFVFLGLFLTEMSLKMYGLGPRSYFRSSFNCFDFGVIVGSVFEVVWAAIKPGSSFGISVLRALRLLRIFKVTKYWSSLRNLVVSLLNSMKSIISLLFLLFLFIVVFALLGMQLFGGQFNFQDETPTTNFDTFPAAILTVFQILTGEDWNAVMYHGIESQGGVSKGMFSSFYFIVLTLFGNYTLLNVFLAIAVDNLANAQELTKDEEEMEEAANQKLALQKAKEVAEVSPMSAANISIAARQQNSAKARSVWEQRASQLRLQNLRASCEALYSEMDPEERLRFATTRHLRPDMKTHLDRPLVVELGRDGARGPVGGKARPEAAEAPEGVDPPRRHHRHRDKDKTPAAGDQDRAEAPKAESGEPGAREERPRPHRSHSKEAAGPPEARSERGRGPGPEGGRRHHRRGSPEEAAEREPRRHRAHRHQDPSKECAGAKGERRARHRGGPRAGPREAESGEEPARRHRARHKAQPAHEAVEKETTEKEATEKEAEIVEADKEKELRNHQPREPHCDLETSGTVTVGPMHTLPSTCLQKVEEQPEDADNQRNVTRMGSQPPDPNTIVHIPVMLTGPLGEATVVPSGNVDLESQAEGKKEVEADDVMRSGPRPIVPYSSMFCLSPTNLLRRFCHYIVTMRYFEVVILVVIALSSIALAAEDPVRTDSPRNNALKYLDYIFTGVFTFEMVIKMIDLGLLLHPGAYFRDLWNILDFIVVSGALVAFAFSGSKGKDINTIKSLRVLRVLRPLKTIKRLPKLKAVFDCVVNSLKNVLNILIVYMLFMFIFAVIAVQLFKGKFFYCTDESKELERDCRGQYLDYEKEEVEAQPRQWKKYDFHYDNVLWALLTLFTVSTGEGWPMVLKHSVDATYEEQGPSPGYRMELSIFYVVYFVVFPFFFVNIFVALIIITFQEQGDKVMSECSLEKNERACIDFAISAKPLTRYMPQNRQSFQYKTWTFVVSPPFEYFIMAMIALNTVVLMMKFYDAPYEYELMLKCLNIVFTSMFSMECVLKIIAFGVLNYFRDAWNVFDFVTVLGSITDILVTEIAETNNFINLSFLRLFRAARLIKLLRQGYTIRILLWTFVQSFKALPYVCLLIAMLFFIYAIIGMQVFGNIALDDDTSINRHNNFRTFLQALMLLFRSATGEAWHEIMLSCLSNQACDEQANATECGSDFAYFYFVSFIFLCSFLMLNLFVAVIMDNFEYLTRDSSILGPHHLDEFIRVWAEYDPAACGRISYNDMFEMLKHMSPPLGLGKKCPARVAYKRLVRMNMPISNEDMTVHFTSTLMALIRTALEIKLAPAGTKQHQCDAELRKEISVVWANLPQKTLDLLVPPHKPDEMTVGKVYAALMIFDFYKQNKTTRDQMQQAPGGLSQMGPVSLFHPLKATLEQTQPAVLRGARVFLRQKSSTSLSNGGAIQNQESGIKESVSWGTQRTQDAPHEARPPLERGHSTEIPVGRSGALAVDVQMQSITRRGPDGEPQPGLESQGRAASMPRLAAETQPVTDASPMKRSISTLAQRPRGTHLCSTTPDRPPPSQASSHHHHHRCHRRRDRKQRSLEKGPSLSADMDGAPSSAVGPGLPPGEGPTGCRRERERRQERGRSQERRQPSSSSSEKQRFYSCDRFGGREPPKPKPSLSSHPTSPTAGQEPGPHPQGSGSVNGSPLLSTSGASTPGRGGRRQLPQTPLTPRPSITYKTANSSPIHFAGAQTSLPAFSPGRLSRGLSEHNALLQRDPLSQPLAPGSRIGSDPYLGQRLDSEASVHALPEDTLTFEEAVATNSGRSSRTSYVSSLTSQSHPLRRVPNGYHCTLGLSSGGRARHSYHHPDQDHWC

Row | Structure (SMILES) | inhibition [%]
1 | Clc1nssc1=Nc1ccc(Br)cc1 | 79.3
2 | CC(=O)Oc1ccc(/C=N\NC(=O)c2cc3c(ccc4ccccc43)o2)cc1 | 43.8
3 | Nc1c(C(=O)NC2CC2)sc2nc3c(c(-c4ccco4)c12)CC/C3=C/c1ccco1 | 49.9
4 | CCOc1ccc(N2CSC3=C(C#N)C(c4ccco4)CC(=O)N3C2)cc1 (configuration not stated) | 70.1
5 | N#C/C(=C\c1ccc(OCCN2CCOCC2)cc1)C(=O)Nc1ccc(S(N)(=O)=O)cc1 | 68.9
6 | O=C(CN1C(=O)/C(=C\c2cccc(Br)c2)Oc2ccccc21)NCC1CCCO1 (configuration not stated) | 46.7
7 | COCCNC(=O)/C(C#N)=C/c1cccc(/C=C(\C#N)C(=O)NCCOC)c1 | 54
8 | O=C(CSc1ccc(Cl)cc1)Nc1cccc(-c2nc3ccccc3[nH]2)c1 | 49.7
9 | O=C(N/N=C/c1ccncc1)c1ccc(NC(=O)c2ccc(Cl)cc2)cc1 | 68.9
10 | CCCCCCc1cc2cc(-c3nnc(-c4ccccc4OC)o3)c(=O)oc2cc1O | 77.5
11 | N#Cc1cccc(N=c2ssnc2Cl)c1 | 66.4
12 | O=C(CNC(=O)/C=C/c1ccco1)N=Nc1c(O)[nH]c2ccccc12 | 50.6
13 | Cc1cc(C)nc(/N=c2/ssnc2Cl)c1 | 60.1
14 | COC(=O)c1ccc(/C=C2/SC(=S)N(CCCC(=O)Nc3ccc(O)cc3)C2=O)cc1 | 57.2
15 | ClC(Cl)(c1nnnn1-c1ccccc1)c1nnnn1-c1ccccc1 | 87.4
16 | CC1=C(C)CS(=O)N(S(=O)(=O)c2ccc(Cl)cc2)C1 (configuration not stated) | 81.3
17 | O=C(CCN1C(=O)/C(=C/c2ccc(Cl)cc2)SC1=S)NC1C=CS(=O)(=O)C1 (configuration not stated) | 85.6
18 | N=C1/C(=C/c2ccc(-c3cccc(C(=O)O)c3)o2)C(=O)N=C2SC=C(c3ccccc3)N12 | 87.8
19 | COc1ccc(-n2cccc2/C=C2\C(=N)N3N=C(c4ccco4)SC3=NC2=O)cc1 | 71.2
20 | Cc1ccc(-n2nnnc2C(Cl)(Cl)c2nnnn2-c2ccc(C)cc2)cc1 | 81.8
21 | Cc1cccnc1NC(=S)Nc1ccc(F)cc1F | 68.6

Row | Structure (SMILES) | inhibition [%]
22 | CCc1ccc(-n2cccc2/C=C2/C(=N)N3C(=NC2=O)SN=C3S(C)(=O)=O)cc1 | 40.9
23 | Cc1ccc(Cn2c(C(C)Nc3nc(-c4ccc(C)cc4)cs3)nc3cc(Cl)c(Cl)cc32)cc1 (configuration not stated) | 77.2
24 | Cc1cc2nn(-c3cccc4ccccc34)nc2cc1N | 53.3
25 | O=C(Nc1nc2ccsc2c(=O)s1)c1ccco1 | 56.4
26 | Nc1ccc2nn(-c3cccc4ccccc34)nc2c1 | 60.5
27 | CC(C)NC(=O)COC(=O)/C=C/c1ccco1 | 23
28 | O=C(N/N=C/c1cc(Cl)c(O)c(Cl)c1)c1cc2c(ccc3ccccc32)o1 | 61.4
29 | Cc1ccc(NN2C(=O)C=C(c3ccc(Cl)cc3)C2=O)cc1 | 56.2
30 | O=C(CCN1C(=O)/C(=C/c2ccccc2F)SC1=S)NC1C=CS(=O)(=O)C1 (configuration not stated) | 85.3
31 | Cc1ccc(N2CSC3=C(C#N)C(c4cccs4)CC(=O)N3C2)cc1 (configuration not stated) | 54.6
32 | O=C(CN1C(=O)S/C(=C\c2ccc(-c3cc(C(=O)O)ccc3Cl)o2)C1=O)Nc1ccc2c(c1)OCO2 | 64.7
33 | CN(CCC#N)C(=O)COC(=O)c1c2c(nc3ccccc13)/C(=C/c1ccco1)CC2 | 51.9
34 | O=C(O)COc1ccc(/C=N/NC(=O)c2ccc(-c3csc(Nc4ccc(Cl)cc4)n3)cc2)cc1 | 75
35 | Cc1cc(C)nc(NC(=S)Nc2ccc(Br)cc2Cl)c1 | 70.2
36 | O=C(CCS(=O)(=O)c1ccc(Br)cc1)NCc1ccco1 | 66.3
37 | O=C(CCN1C(=O)/C(=C/c2ccccc2Cl)SC1=S)NC1C=CS(=O)(=O)C1 (configuration not stated) | 63.6
38 | CC(/C=C/c1ccco1)=N/NC(=O)Cc1cccs1 | 44.6
39 | COc1ccc2cc3c(N)nn(C(=O)c4ccc(Cl)c([N+](=O)[O-])c4)c3nc2c1 | 45.6
40 | COc1cc(NC(=O)c2cccc(F)c2)ccc1NC(=O)c1cc2ccccc2o1 | 48.1
41 | Cn1cc(Cl)c(C(=O)Nc2nc3ccc([N+](=O)[O-])cc3s2)n1 | 39.7
42 | C=C(C)C(=O)Nc1cccc(C2=NOC3(C2)C[C@@H](C(N)=O)N(C(=O)CCCCC)C3)c1 (some centres not stated) | 71.1

Row | Structure (SMILES) | inhibition [%]
43 | CCOC(=O)C1=C(C)N=c2s/c(=C/c3ccc(OCC(=O)O)cc3)c(=O)n2C1c1ccc(SC)cc1 (configuration not stated) | 92.4
44 | COc1cc(-c2ccc(Nc3ccccc3C(=O)O)c(OC)c2)ccc1Nc1ccccc1C(=O)O | 65.3
45 | COc1cc(OC)c2c(O)c3c(c(-c4c5c(c(O)c6c(OC)cc(OC)cc46)CO[C@@H](C)[C@H]5O)c2c1)[C@H](O)[C@H](C)OC3 | 72.6
46 | COCCn1c(SCC(=O)Nc2ccc(C(N)=O)cc2)nc2c([nH]c3ccccc32)c1=O | 56.5
47 | COc1ccc(N2C(=O)CC(Sc3nnnn3-c3ccc(F)cc3)C2=O)cc1 (configuration not stated) | 58.4
48 | CCOC(=O)c1c2ccc(OCC(=O)NN)cc2n2ccccc12 | 45
49 | Cc1cccc(-n2cnc3c(c2=O)c2nc4ccccc4nc2n3Cc2ccco2)c1 | 40
50 | COc1cc(NC(=O)c2ccccc2)ccc1NC(=O)c1cc2ccccc2o1 | 65.6
51 | CCOc1ccc(/C=C2/SC(=S)N(CCC(=O)Nc3ccc(C(=O)O)cc3)C2=O)cc1 | 85.6
52 | CCOC(=O)C1=C(C)N=c2s/c(=C\c3ccc(OCC(=O)O)cc3)c(=O)n2C1c1ccc(Cl)cc1 (configuration not stated) | 92.2
53 | CCOC(=O)Cc1csc(-n2sc3ccccc3c2=O)n1 | 72
54 | N#CC1=C(N)NC(=S)C(C(N)=O)C1c1ccc([N+](=O)[O-])cc1 (configuration not stated) | 87.3
55 | CC(=O)Nc1ccc(OC(=O)c2cc3cc(Br)ccc3oc2=O)cc1 | 49.2
56 | COc1ccc([C@@H]2CC(=O)c3c(O)cc(O[C@@H]4O[C@H](CO[C@@H]5O[C@@H](C)[C@H](O)[C@@H](O)[C@H]5O)[C@@H](O)[C@H](O)[C@H]4O)cc3O2)cc1O | 68.5
57 | Cc1ccc(-c2cc(C(=O)NCCN3CCOCC3)c3ccccc3n2)o1 | 58.7
58 | O=C(O)CCc1ccc(-c2cccs2)o1 | 49.8
59 | O=C(/C=C/c1ccc([N+](=O)[O-])cc1)N(c1ccccn1)C1CCCCC1 | 54.7
60 | O=C(O)C1Nc2c(O)cccc2C2C=CCC12 (configuration not stated) | 79.4
61 | [N-]=C=C1C(=S)NC(=O)[C@H]([n+]2ccccc2)[C@H]1c1ccc(Cl)cc1 | 54.5
62 | Cc1cc(C)c2c(=O)n(CC(=O)NCCCN3CCOCC3)sc2n1 | 94.2

From PubChem BioAssay AID2073 (Sanford-Burnham Center for Chemical Genomics, 2009)
